{"source": "the supplement of paper PMC8728848", "binders": {"B1": {"name": "rEtpA (Escherichia coli) (protein)", "chain": "MNRIYKLKFDKRRNELVVVSEITTGVGNAKATGSVEGEKSPRRGVRAMALSLLSGMMIMAHPAMSANLPTGGQIVAGSGSIQTPSGNQMNIHQNSQNMVANWNSFDIGKGNTVQFDQPSSSAVALNRVVGGGESQIMGNLKANGQVFLVNPNGVLFGEGASVSTSGFVASTRDIKNDDFMNRRYTFSGGQKAGAAIVNQGELTTNAGGYIVLAADRVSNSGTIRTPGGKTVLAASERITLQLDNGGLMSVQVTGDVVNALVENRGLVSARDGQVYLTALGRGMLMNTVLNVSGVVEASGMHRQDGNIVLDGGDSGVVHLSGTLQADNASGQGGKVVVQGKNILLDKGSNITATGGQGGGEVYVGGGWQGKDSNIRNADKVVMQGGARIDVSATQQGNGGTAVLWSDSYTNFHGQISAKGGETGGNGGRVETSSHGNLQAFGTVSASAKKGKAGNWLLDSADITIVNGSNVSKTETTQSPPHTQFAPTAAGSAVSNTSINNRLNNGTSVTILTHRTRTGTAQGGNITVNAAINKSNGSDVNLTLQAGGNITVNNSITSTEGKLNVNLSGARTSNGSITISNNANITTNGGDITVGTTNTSNRVNISINNTTLNASNGNIQLTGTGTDSGILFAGNNRLTASNIALTGNSTSGNAINLTGTATLNATNNITLTGSSTSGNAINLKGNNTLTASNITLTGESTSGNAINLTDTTGTTTLNATNNITMQGTRVQIKHSNITAGNFALNATVAGSEISNTTLTATNNINLAAKTNSASSGVYLKDARITSTNGSITANGTATANGKATHLDGNVTLNASNGRIKLTGNGHGSASGILFAGNNRLTASNIALTGNSTSGNAINLTGTATLNATNDITLTGSSTSGNAINLTGTATLNATNNITLTGSSTSGNAINLKGNNTLTASNITLTGESTSGNAINLTDTTGTTTLNATNNITMQGTRVQIKHSNITAGNFALNATVAGSEISNTTLTATNNINLAAKTNSASSGVYLKDARITSTNGSITANGTATANGKATHLDGNVTLNASNGRIKLTGNGHGSASGILFAGNNRLTASNIALTGNSTSGNAINLTGTATLNATNDITLTGSSTSGNAINLTGTATLNATNNITLTGSSTSGNAINLKGNNTLTASNITLTGESTSGNAINLTDTTGTTTLNATNNITMQGTRVQIKHSNITAGNFALNATVAGSEISNTTLTATNNINLAAKTNSASSGVYLKDARITSTNGSITANGTATANGKATHLDGNVTLNASNGRIKLTGNGHGSASGILFAGNNRLTASNIALTGNSTSGNAINLTGTATLNATNDITLTGSSTSGNAINLTGTATLNATNNITLTGSSTSGNAINLKGNNTLTASNITLTGESTSGNAINLTDTTGTTTLNATNNITMQGTRVQIKHSNITAGNFALNATVAGSEISNTTLTATNNINLAAKTNSASSGVYLKDARITSTNGSITTNGTATANGKATHLDGNVTLNASNGRIKLTGNGHGSASGILFAGNNRLTASNIALTGNSTSGNAINLTGTATLNATNDITLTGSSTSGNAINLTGTATLNATNNITLTGSSTSGNAINLKGNNTLTASNITLTGESTSGNAINLTDTTGTTTLNATNNITMQGTRVQIKHSNITAGNFALNATVAGSEISNTTLTATNNINLAAKTNSASSGVYLKDARITSTNGSITANGTAPANDNATYLDGNVTLNASNGSIKLTGNGNGSTSGILFAGNNTLTASNITLTGNSEVYWQKLGPEQKLISEEDLNSAVDHHHHHH"}}, "experiment_in_all_cases": "glycan array binding signal (z-score within array); higher = stronger binding", "conditions_in_all_cases": "glycan notation: IUPAC condensed, linker removed", "key": {"[1]": {"target": "Neu5Ac(a2-6)GlcNAc(b1-4)GlcNAc(b1-4)GlcNAc", "summary_of_the_method": "(§1)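 From the Consortium for Functional Glycomics database, 3228 arrays were curated, keeping only those whose protein sequence was available. Binding is given as a within-array Z-score averaged across arrays sharing a protein sequence and across linkers. Negative Z-scores can be read as non-binding.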"}, "Neu5Ac(a2-8)Neu5Ac": {"target": "Neu5Ac(a2-8)Neu5Ac", "summary_of_the_method": "as §1"}, "[2]": {"target": "Neu5Ac(a2-8)Neu5Ac(a2-3)Gal(b1-3)GalNAc(b1-4)[Neu5Ac(a2-3)]Gal(b1-4)Glc", "summary_of_the_method": "as §1"}, "[3]": {"target": "Neu5Ac(a2-8)Neu5Ac(a2-3)Gal(b1-3)GalNAc(b1-4)[Neu5Ac(a2-8)Neu5Ac(a2-3)]Gal(b1-4)Glc", "summary_of_the_method": "as §1"}, "[4]": {"target": "Neu5Ac(a2-8)Neu5Ac(a2-3)Gal(b1-4)Glc", "summary_of_the_method": "as §1"}, "[5]": {"target": "Neu5Ac(a2-8)Neu5Ac(a2-3)Gal(b1-4)GlcNAc", "summary_of_the_method": "as §1"}, "[6]": {"target": "Neu5Ac(a2-8)Neu5Ac(a2-3)[Gal(b1-3)GalNAc(b1-4)]Gal(b1-4)Glc", "summary_of_the_method": "as §1"}, "[7]": {"target": "Neu5Ac(a2-8)Neu5Ac(a2-3)[GalNAc(b1-4)]Gal(b1-4)Glc", "summary_of_the_method": "as §1"}, "[8]": {"target": "Neu5Ac(a2-8)Neu5Ac(a2-8)Neu5Ac", "summary_of_the_method": "as §1"}, "[9]": {"target": "Neu5Ac(a2-8)Neu5Ac(a2-8)Neu5Ac(a2-3)Gal(b1-4)Glc", "summary_of_the_method": "as §1"}, "[10]": {"target": "Neu5Ac(a2-8)Neu5Ac(a2-8)Neu5Ac(a2-3)[Gal(b1-3)GalNAc(b1-4)]Gal(b1-4)Glc", "summary_of_the_method": "as §1"}, "[11]": {"target": "Neu5Ac(a2-8)Neu5Ac(a2-8)Neu5Ac(a2-3)[GalNAc(b1-4)]Gal(b1-4)Glc", "summary_of_the_method": "as §1"}, "[12]": {"target": "Neu5Ac(a2-8)Neu5Ac(a2-8)Neu5Ac(a2-8)Neu5Ac(a2-3)[GalNAc(b1-4)]Gal(b1-4)Glc", "summary_of_the_method": "as §1"}, "[13]": {"target": "Neu5Ac(a2-8)Neu5Gc(a2-3)Gal(b1-4)GlcNAc", "summary_of_the_method": "as §1"}, "[14]": {"target": "Neu5Ac(b2-6)Gal(b1-4)GlcNAc", "summary_of_the_method": "as §1"}, "Neu5Ac(b2-6)GalNAc": {"target": "Neu5Ac(b2-6)GalNAc", "summary_of_the_method": "as §1"}, "[15]": {"target": "Neu5Ac9Ac(a2-3)Gal(b1-3)GlcNAc", "summary_of_the_method": "as §1"}, "[16]": {"target": "Neu5Ac9Ac(a2-3)Gal(b1-4)GlcNAc", "summary_of_the_method": "as §1"}, "[17]": {"target": "Neu5Ac9Ac(a2-6)Gal(b1-4)GlcNAc", "summary_of_the_method": "as §1"}, "[18]": {"target": "Neu5Gc(a2-3)Gal(b1-3)GlcNAc", "summary_of_the_method": "as §1"}, "[19]": {"target": "Neu5Gc(a2-3)Gal(b1-3)[Fuc(a1-4)]GlcNAc", "summary_of_the_method": "as §1"}, "Neu5Gc(a2-3)Gal(b1-4)Glc": {"target": "Neu5Gc(a2-3)Gal(b1-4)Glc", "summary_of_the_method": "as §1"}, "[20]": {"target": "Neu5Gc(a2-3)Gal(b1-4)GlcNAc", "summary_of_the_method": "as §1"}, "[21]": {"target": "Neu5Gc(a2-3)Gal(b1-4)GlcNAc(b1-3)Gal(b1-4)GlcNAc(b1-2)Man(a1-3)[Neu5Gc(a2-3)Gal(b1-4)GlcNAc(b1-3)Gal(b1-4)GlcNAc(b1-2)Man(a1-6)]Man(b1-4)GlcNAc(b1-4)GlcNAc", "summary_of_the_method": "as §1"}, "[22]": {"target": "Neu5Gc(a2-3)Gal(b1-4)[Fuc(a1-3)]GlcNAc", "summary_of_the_method": "as §1"}, "[23]": {"target": "Neu5Gc(a2-6)Gal(b1-4)GlcNAc", "summary_of_the_method": "as §1"}, "Neu5Gc(a2-6)GalNAc": {"target": "Neu5Gc(a2-6)GalNAc", "summary_of_the_method": "as §1"}, "[24]": {"target": "Neu5Gc(a2-8)Neu5Ac(a2-3)Gal(b1-4)GlcNAc", "summary_of_the_method": "as §1"}, "[25]": {"target": "Neu5Gc(a2-8)Neu5Gc(a2-3)Gal(b1-4)GlcNAc", "summary_of_the_method": "as §1"}, "[26]": {"target": "Neu5Gc(a2-8)Neu5Gc(a2-3)Gal(b1-4)GlcNAc(b1-3)Gal(b1-4)GlcNAc", "summary_of_the_method": "as §1"}, "[27]": {"target": "Neu5Gc(a2-8)Neu5Gc(a2-6)Gal(b1-4)GlcNAc", "summary_of_the_method": "as §1"}, "[28]": {"target": "Neu5Gc(b2-6)Gal(b1-4)GlcNAc", "summary_of_the_method": "as §1"}}, "note": "Some of the results follow.", "data": [{"binder": "B1", "values": [{"measurement": "glycan array binding signal (z-score)", "setting": "[1]", "result": -0.362}, {"measurement": "glycan array binding signal (z-score)", "setting": "Neu5Ac(a2-8)Neu5Ac", "result": -0.08}, {"measurement": "glycan array binding signal (z-score)", "setting": "[2]", "result": -0.199}, {"measurement": "glycan array binding signal (z-score)", "setting": "[3]", "result": -0.138}, {"measurement": "glycan array binding signal (z-score)", "setting": "[4]", "result": -0.337}, {"measurement": "glycan array binding signal (z-score)", "setting": "[5]", "result": -0.399}, {"measurement": "glycan array binding signal (z-score)", "setting": "[6]", "result": 1.42}, {"measurement": "glycan array binding signal (z-score)", "setting": "[7]", "result": 0.026}, {"measurement": "glycan array binding signal (z-score)", "setting": "[8]", "result": -0.268}, {"measurement": "glycan array binding signal (z-score)", "setting": "[9]", "result": -0.007}, {"measurement": "glycan array binding signal (z-score)", "setting": "[10]", "result": -0.42}, {"measurement": "glycan array binding signal (z-score)", "setting": "[11]", "result": -0.325}, {"measurement": "glycan array binding signal (z-score)", "setting": "[12]", "result": -0.33}, {"measurement": "glycan array binding signal (z-score)", "setting": "[13]", "result": -0.451}, {"measurement": "glycan array binding signal (z-score)", "setting": "[14]", "result": -0.386}, {"measurement": "glycan array binding signal (z-score)", "setting": "Neu5Ac(b2-6)GalNAc", "result": -0.291}, {"measurement": "glycan array binding signal (z-score)", "setting": "[15]", "result": -0.064}, {"measurement": "glycan array binding signal (z-score)", "setting": "[16]", "result": -0.273}, {"measurement": "glycan array binding signal (z-score)", "setting": "[17]", "result": -0.29}, {"measurement": "glycan array binding signal (z-score)", "setting": "[18]", "result": -0.173}, {"measurement": "glycan array binding signal (z-score)", "setting": "[19]", "result": -0.198}, {"measurement": "glycan array binding signal (z-score)", "setting": "Neu5Gc(a2-3)Gal(b1-4)Glc", "result": -0.133}, {"measurement": "glycan array binding signal (z-score)", "setting": "[20]", "result": -0.194}, {"measurement": "glycan array binding signal (z-score)", "setting": "[21]", "result": -0.396}, {"measurement": "glycan array binding signal (z-score)", "setting": "[22]", "result": -0.291}, {"measurement": "glycan array binding signal (z-score)", "setting": "[23]", "result": 0.192}, {"measurement": "glycan array binding signal (z-score)", "setting": "Neu5Gc(a2-6)GalNAc", "result": -0.017}, {"measurement": "glycan array binding signal (z-score)", "setting": "[24]", "result": -0.108}, {"measurement": "glycan array binding signal (z-score)", "setting": "[25]", "result": -0.334}, {"measurement": "glycan array binding signal (z-score)", "setting": "[26]", "result": -0.353}, {"measurement": "glycan array binding signal (z-score)", "setting": "[27]", "result": -0.418}, {"measurement": "glycan array binding signal (z-score)", "setting": "[28]", "result": -0.189}]}]}
